Data published in paper PMC4336329 (PLoS ONE, 2015).
The whole screen tested about 310,000 compounds, of which about 14,000 (4.5%) showed an effect of 50% or more. Effects have a minus sign here. This is one part of the list.

target: human ether-à-go-go-related gene (hERG) potassium channel (human, UniProt Q12809); assay: primary screen, population patch clamp on CHO cells stably expressing hERG
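Further: peak tail current of the secondary pulse compared with the same well before compound.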

human ether-à-go-go-related gene (hERG) potassium channel, sequence (Q12809 whole entry, looked up): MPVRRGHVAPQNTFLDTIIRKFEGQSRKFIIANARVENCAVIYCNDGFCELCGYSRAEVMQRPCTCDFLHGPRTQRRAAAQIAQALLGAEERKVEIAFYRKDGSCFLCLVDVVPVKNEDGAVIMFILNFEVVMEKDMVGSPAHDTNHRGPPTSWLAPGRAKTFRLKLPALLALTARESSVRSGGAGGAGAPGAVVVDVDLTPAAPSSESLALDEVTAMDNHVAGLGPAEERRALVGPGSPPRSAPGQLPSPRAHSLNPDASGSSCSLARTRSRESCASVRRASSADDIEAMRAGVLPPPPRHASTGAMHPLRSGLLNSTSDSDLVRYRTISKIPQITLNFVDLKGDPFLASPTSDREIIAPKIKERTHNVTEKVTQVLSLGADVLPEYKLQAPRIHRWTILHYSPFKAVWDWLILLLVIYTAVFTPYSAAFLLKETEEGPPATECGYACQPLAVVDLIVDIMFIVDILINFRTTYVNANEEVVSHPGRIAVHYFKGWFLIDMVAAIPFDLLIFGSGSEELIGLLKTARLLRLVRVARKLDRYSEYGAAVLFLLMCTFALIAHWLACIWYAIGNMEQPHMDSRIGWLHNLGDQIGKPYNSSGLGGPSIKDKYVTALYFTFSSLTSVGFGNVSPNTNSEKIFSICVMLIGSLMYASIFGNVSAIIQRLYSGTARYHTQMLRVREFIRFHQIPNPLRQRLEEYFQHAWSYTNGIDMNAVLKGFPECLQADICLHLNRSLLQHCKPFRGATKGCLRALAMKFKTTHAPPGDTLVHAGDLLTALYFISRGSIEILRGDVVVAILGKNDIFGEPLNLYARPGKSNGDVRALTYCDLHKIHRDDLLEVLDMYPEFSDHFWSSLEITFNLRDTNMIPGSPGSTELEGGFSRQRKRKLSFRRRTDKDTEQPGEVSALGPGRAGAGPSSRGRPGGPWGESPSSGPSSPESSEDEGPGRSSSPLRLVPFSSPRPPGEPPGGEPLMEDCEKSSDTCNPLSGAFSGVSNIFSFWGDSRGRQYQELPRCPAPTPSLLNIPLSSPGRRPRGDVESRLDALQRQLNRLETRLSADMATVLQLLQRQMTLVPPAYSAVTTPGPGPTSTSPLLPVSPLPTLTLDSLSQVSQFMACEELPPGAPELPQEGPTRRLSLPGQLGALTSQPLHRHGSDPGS

Row | Structure (SMILES) | hERG current change (%, negative = inhibition) at 10uM [%]
1 | O=C(NCN1CCN(c2ccccc2F)CC1)c1ccccc1 | -4.76
2 | COc1ccc(-c2nc3c(s2)CCc2onc(-c4ccc(Br)cc4)c2-3)cc1 | 10.2
3 | COC(=O)[C@@H](NCc1cccc(CN[C@H](C(=O)OC)C(C)C)c1)C(C)C | 6.01
4 | CCC1=NN(C(=O)COc2ccccc2C)C(O)(c2ccncc2)C1 (stereo not shown) | -7.5
5 | Cc1ccc(NC(=O)CN2CCN(Cc3ccccc3)CC2)cc1F | -71.2
6 | CC(C)(C)c1nc2ccccc2c2nnc(SCC(=O)Nc3nc4ccccc4s3)n12 | 5.82
7 | COc1ccc(N2Cc3cccc(C(=O)N4CCOCC4)c3C2=O)cc1 | -11.8
8 | CCOC(=O)C1C(=O)C=C(c2cccs2)CC1c1ccccc1 (stereo not shown) | 3.93
9 | CCOc1ccccc1NC(=O)Nc1ccc(Br)cn1 | -4.01
10 | Cc1ccc(OCC(O)CN2CCN(CC(O)COc3ccc(C)cc3)CC2)cc1 (stereo not shown) | -63.9
11 | COCCNc1cc(C)nc2ccccc12.Cl | -10.8
12 | CC1=C(C(=O)N2CCOCC2)C(c2cc(C)cs2)NC(=O)N1 (stereo not shown) | 5.45
13 | COC(=O)c1cnc(Oc2ccc(NC(=O)NC(=O)c3c(OC)cccc3OC)cc2)cc1C(F)(F)F | -14.1
14 | Cc1cc(C)nc(SCC(=O)N/N=C\c2sccc2C)n1 | 4.22
15 | O=C(COc1ccccc1)NCCSCc1ccco1 | 13.6
16 | Cc1cnccc1CN(C)Cc1cn(C)nc1-c1cccc(Cl)c1 | -12.3
17 | Cc1oc2cc(OCc3cnn(-c4ccccc4)c3)ccc2c(=O)c1Oc1ccccc1F | -11.2
18 | Cc1ccc(NC(=O)C/C(N)=N/O)cc1C | 6.96
19 | CC(=O)c1c(N2CCOCC2)nc(=S)n(-c2ccccc2)c1C | 2.4
20 | O=S(=O)(NCc1ccc2c(c1)OCO2)c1ccc(Cl)s1 | -20.6
21 | COc1ccc(C(=O)N2CCC(C(=O)O)CC2)c2ccccc12 | -8.49
22 | COc1ccc(CCNC(=O)CS(=O)(=O)c2cn(CC(=O)N(C(C)C)C(C)C)c3ccccc23)cc1OC | 2.18

Row | Structure (SMILES) | hERG current change (%, negative = inhibition) at 10uM [%]
23 | CCOC(=O)N1CCN(C(=O)c2ccc(Cl)c(S(=O)(=O)Nc3ccccc3)c2)CC1 | -1.35
24 | CCOc1cc(/C=C(\C#N)C(=O)Nc2ccccc2C(=O)O)ccc1OC(=O)c1ccc(C)cc1 | 24.8
25 | Cl.FC(F)(F)c1cccc(N2CCNCC2)c1 | -13.3
26 | COCCNc1nc(-c2ccc(OC)cc2)c(-c2ccc(OC)cc2)s1 | 15.3
27 | CN1C[C@H](C(=O)NC2(C)OC3(O)[C@@H]4CCCN4C(=O)[C@H](Cc4ccccc4)N3C2=O)CC2c3cccc4[nH]cc(c34)C[C@H]21.CS(=O)(=O)O (stereo partly shown) | -3.57
28 | CC(C)NC(=O)/C(=C/c1cn(-c2ccccc2)nc1-c1cccc([N+](=O)[O-])c1)NC(=O)c1ccccc1 | 1.56
29 | COCc1nc(-c2cc(OC)c(OC)c(OC)c2)no1 | -16.3
30 | O=C(/C=C/c1ccc(Cl)cc1)NCCCN1CCOCC1 | -71
31 | O=C(Nc1ccc(N2CCOCC2)c(F)c1)c1cccs1 | 1.9
32 | O=C1Nc2ccccc2C1=Nc1ccc(S(=O)(=O)Nc2nccs2)cc1 | 26.5
33 | CCCn1c(=O)c2ccccc2n2c(SCCOc3ccc(Cl)cc3)nnc12 | -18.1
34 | Cc1ccc(CNC(=O)CCCc2cn(C)c3ccccc23)cc1 | 19.8
35 | CN1[C@H]2CC[C@@H]1C(C(=O)N1CCOCC1)=C(O)C2 | 16.7
36 | O=C(N/N=C/c1cccc2ccccc12)c1ccncc1 | -15.5
37 | COc1cc([N+](=O)[O-])cc(/C=N/NC(=O)CSc2ccccn2)c1O | 13.6
38 | CC1(C)Cc2c(cnn2-c2ccc(F)cc2)C(NC(=O)CN2CCCCC2=O)C1 (stereo not shown) | -4.5
39 | O=C(CSc1nnc(Cc2cccs2)n1C1CCCCC1)N1CCN(C(=O)c2ccco2)CC1 | -14.9
40 | Cc1nc2c(-c3ccccc3)c(C)[nH]n2c(=O)c1Cl | -8.17
41 | O=C(CCC(=O)NNC(=S)Nc1ccccc1)NCc1ccccc1 | 29.4
42 | Nc1cc(N2CCCC2)c(Cl)cc1[N+](=O)[O-] | 16.8
43 | Cc1ccc(NC(=O)c2noc(C(C)C)c2[N+](=O)[O-])cc1 | 8.4
44 | CN(CC(=O)Nc1ccc(F)cc1)c1ccc(S(=O)(=O)N2CCCCC2)cc1[N+](=O)[O-] | -17.8

Row | Structure (SMILES) | hERG current change (%, negative = inhibition) at 10uM [%]
45 | CCc1ccc(NC(=O)N(Cc2ccco2)C(C)c2cccs2)cc1 (stereo not shown) | 10.9
46 | OCCN(Cc1ccccc1)Cc1cccc(C(F)(F)F)c1 | 10.2
47 | CCOC(=O)C1CCN(c2cc(C)nc3cc(-c4cccc(F)c4)nn23)CC1 | -5.74
48 | O=C(NCc1ccccc1)c1ncn(Cc2ccccc2)c1C(=O)NCc1ccccc1 | 17.3
49 | CC(=O)Nc1ccc2nc3ccccc3nc2c1 | 8.1
50 | Cc1ccc(S(=O)(=O)Nc2cccc(-n3cnnn3)c2)cc1C | -1.36
51 | COCCCNC(=O)Cn1cnc2sc(C)c(S(=O)(=O)N3CC(C)CC(C)C3)c2c1=O (stereo not shown) | -0.637
52 | NC(=S)N=Nc1c(O)n(Cc2ccccc2)c2ccccc12 | -3.89
53 | CCOC(=O)N1CCN(S(=O)(=O)CCNC(=O)c2cccc(OC)c2)CC1 | 2.45
54 | CCOC(=O)c1cnc(=O)[nH]c1C.Cl | -2.23
55 | COc1ccc(N2C(=O)CSC23C(=O)Nc2ccccc23)cc1OC (stereo not shown) | 3.26
56 | CCOC(=O)C(Cc1ccc(OC)c([N+](=O)[O-])c1)NC(=O)CCC(=O)Nc1ccc(OC)cc1 (stereo not shown) | 1.35
57 | COc1ccccc1NC(=O)CN1C(=O)NC2(CCCCCCC2)C1=O | 1.08
58 | Cn1c(O)c(C(=NCCc2c[nH]c3ccccc23)c2ccccc2)c(=O)n(C)c1=O | -8.35
59 | Cc1ccc(C(c2nnnn2CCC(C)C)N2CCN(C)CC2)cc1.Cl (stereo not shown) | -30.4
60 | O=C(O)/C=C/C(=O)NCc1ccccc1 | 6.82
61 | Cc1cccc(OCC(=O)N/N=C/c2ccc3c(c2)OCO3)c1 | -2.46
62 | N#Cc1cnc(NOCc2ccc(Cl)cc2)nc1 | -8.5
63 | COc1ccccc1N(CC(=O)NCc1ccccc1)C(=O)CCC(=O)Nc1cc(C)ccn1 | -9.35
64 | Cc1ccc(C(=O)NC(C)c2ccc(S(N)(=O)=O)cc2)s1 (stereo not shown) | 9.96
65 | Cc1ccc(C)c(NC(=S)NCCc2c[nH]c3ccccc23)c1 | -15.5
66 | O=[N+]([O-])c1cc(/C=N/O)ccc1Oc1ccccc1Cl | -16

Row | Structure (SMILES) | hERG current change (%, negative = inhibition) at 10uM [%]
67 | O=C1CCCN=C(Nc2ccc(F)c(Cl)c2)S1 | -18.8
68 | CC(=O)c1ccc(NC(=O)COC(=O)c2ccccc2Nc2ccccc2)cc1 | 14.9
69 | CCCN1CCC(=O)N(CCOc2ccccc2)CC1 | -6.3
70 | CCn1c(CNc2ccc(C)cc2)nnc1SCC(=O)NCc1ccccc1 | -10.6
71 | O=C(CN1CCN(C(=O)c2ccco2)CC1)Nc1cccc(S(=O)(=O)N2CCCC2)c1 | -16.2
72 | Cc1cccc2sc(NC(=O)C3CCCO3)nc12 (stereo not shown) | -8.63
73 | Cn1c(CN2CCCCC2)nc2cc(NC(=O)c3ccc(Cl)cc3)ccc21 | -59.8
74 | CCn1c(CC(=O)Nc2ccc(OC)cc2)nnc1SCC(=O)N1CCOCC1 | 18.4
75 | Cc1ccc(NC2CCCN(C(=O)c3ccccc3N3CCOCC3)C2)cc1C (stereo not shown) | -0.641
76 | Cc1cc(S(=O)(=O)NC2CCCCC2)ccc1OCC(=O)NCc1cccnc1 | -23.2
77 | Cc1cc(NC(=O)CN2C(=O)NC3(CCC(C)CC3)C2=O)no1 (stereo not shown) | 30.4
78 | Cc1ccc(NC(=O)CSc2n[nH]c(C)c2[N+](=O)[O-])cc1C | 4.77
79 | CCC(=O)c1ccc(OCC(=O)N2CCN(C(=O)c3ccccc3)CC2)cc1 | -37.8
80 | O=C(Nc1ccccc1C(=O)NCc1ccccc1)C1=CSCCO1 | 12.2
81 | CCOC(=O)CSc1ccc(C(=O)N2CCC3(CC2)OCCO3)cc1[N+](=O)[O-] | 20.7
82 | CCCCN1C[C@H](Cc2ccccc2)[C@@H](CC(=O)Nc2ccccc2)C1=O | -25.4
83 | COC(=O)C1=C(C)NC(C)=C(C(=O)OC)C1C(=O)OCCN1C(=O)c2ccccc2C1=O | -17.3
84 | COc1cc2c(cc1OC)CN(C(=O)c1nn(Cc3ccccc3)c(=O)c3ccccc13)CC2 | -44.7
85 | Nc1ccc(C23CC4CC(CC(CO)(C4)C2)C3)cc1 | 15.7
86 | CC(=O)Nc1nc2cc(N)ccc2s1 | 1.94
87 | Cc1ccc(C(=O)OCC(=O)N2C(C)CCCC2C)cc1S(=O)(=O)N1CCCCC1 (stereo not shown) | -27
88 | CCOc1ccc(C(=O)NNC(=O)C2CC(=O)N(c3ccc(C)cc3)C2)cc1 (stereo not shown) | -2.38
